# Measurements reported in publication PMC5547134.
# The chains behind the UniProt entries cited, without tags or fusion partners.
# UniProt Q6PDM2: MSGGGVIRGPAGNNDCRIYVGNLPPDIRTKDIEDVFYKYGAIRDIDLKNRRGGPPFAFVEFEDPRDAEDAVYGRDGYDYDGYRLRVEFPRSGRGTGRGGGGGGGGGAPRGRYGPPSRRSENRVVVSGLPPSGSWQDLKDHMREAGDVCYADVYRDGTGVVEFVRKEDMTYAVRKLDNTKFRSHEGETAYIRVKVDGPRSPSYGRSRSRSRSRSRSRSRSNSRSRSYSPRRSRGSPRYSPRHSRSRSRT
# No constants are given. Whether binding was seen depends on the method and setting. Binding seen in cells or lysates may run through a third protein. Some binding calls cover weakened binding; strength is not graded here. Sequences can lack the tags named with a protein.
# B1: EGFP-tagged mouse TRA2A (protein, UniProt Q6PFR5 1-281)
# chain: MSDVEENNFEGRESRSQSKSPTGTPARVKSESRSGSRSPSRVSKHSESHSRSRSKSRSRSRRHSHRRYTRSRSHSHRRRSRSRSYTPEYRRRRSRSHSPMSNRRRHTGSRANPDPNTCLGVFGLSLYTTERDLREVFSRYGPLSGVNVVYDQRTGRSRGFAFVYFERIDDSKEAMERANGMELDGRRIRVDYSITKRAHTPTPGIYMGRPTHSGGGGGGGGGGGGGGGGGGGRRRDSYYDRGYDRGYDRYEDYDYRRRSPSPYYSRYRSRSRSRSYSPRRY
# B2: EGFP-tagged mouse TRA2B (protein, UniProt P62996 1-288)
# chain: MSDSGEQNYGERESRSASRSGSAHGSGKSARHTPARSRSKEDSRRSRSKSRSRSESRSRSRRSSRRHYTRSRSRSRSHRRSRSRSYSRDYRRRHSHSHSPMSTRRRHVGNRANPDPNCCLGVFGLSLYTTERDLREVFSKYGPIADVSIVYDQQSRRSRGFAFVYFENVDDAKEAKERANGMELDGRRIRVDFSITKRPHTPTPGIYMGRPTYGSSRRRDYYDRGYDRGYDDRDYYSRSYRGGGGGGGGWRAAQDRDQIYRRRSPSPYYSRGGYRSRSRSRSYSPRRY
# B3: EGFP-tagged full-length ILDR1 (mouse) (protein, UniProt Q8CBR1 23-537)
# chain: LLVTVQHTERYVTLFASVTLKCDYTTSAQLQDVVVTWRFKSFCKDPIFDYFSASYQAALSLGQDPSNDCSDNQREVRIVAQRRGQSEPVLGVDYRQRKITIQNRADLVINEVMWWDHGVYYCTIEAPGDTSGDPDKEVKLIVLHWLTVIFIILGALLLLLLIGVCWCQCCPQYCCCYIRCPCCPTRCCCPEEALARHRYMKQVQALGPQMMEKPLYWGADRSSQVSSYAMNPLLQRDLSLQSSLPQMPMTQMAAHPPVANGVLEYLEKELRNLNPAQPLPADLRAKSGHPCSMLSSLGSAEVVERRVIHLPPLIRDPPSSRTSNPSHQQRLNAVSSRHCDLSERPRQRHHSDFLRELQDQGMRPWAPGRGELDPHWSGRHHRSRPSESSMPWSDWDSLSECPSSSEAPWPPRRPEPREGAQRRERRRHRSYSPPLPSGPSSWSSEEEKESLPRNWGAQRRHHHRRRRSQSPNWPEEKPPSYRSLDVTPGKNNRKKGNVERRLERESSHSGRSVVI
# B4: EGFP-tagged TRA2A RRM domain (mouse) (domain or fragment, UniProt Q6PFR5 117-195)
# chain: TCLGVFGLSLYTTERDLREVFSRYGPLSGVNVVYDQRTGRSRGFAFVYFERIDDSKEAMERANGMELDGRRIRVDYSIT
# B5: EGFP-tagged TRA2B RRM domain (mouse) (domain or fragment, UniProt P62996 118-196)
# chain: CCLGVFGLSLYTTERDLREVFSKYGPIADVSIVYDQQSRRSRGFAFVYFENVDDAKEAKERANGMELDGRRIRVDFSIT
# What was measured:
# Test in all cases: co-IP; HEK293T co-transfected; lysis in 150 mM NaCl, 50 mM Tris pH 7.5, 1% Triton X-100; immobilised anti-Myc antibody at 4 °C overnight; washed three times with 500 mM lysis buffer; western blot with anti-GFP or anti-Myc
# [1] = target: T1, Myc-tagged ILDR1 cytoplasmic fragment (mouse) (mouse) (UniProt Q8CBR1)
# T1 sequence: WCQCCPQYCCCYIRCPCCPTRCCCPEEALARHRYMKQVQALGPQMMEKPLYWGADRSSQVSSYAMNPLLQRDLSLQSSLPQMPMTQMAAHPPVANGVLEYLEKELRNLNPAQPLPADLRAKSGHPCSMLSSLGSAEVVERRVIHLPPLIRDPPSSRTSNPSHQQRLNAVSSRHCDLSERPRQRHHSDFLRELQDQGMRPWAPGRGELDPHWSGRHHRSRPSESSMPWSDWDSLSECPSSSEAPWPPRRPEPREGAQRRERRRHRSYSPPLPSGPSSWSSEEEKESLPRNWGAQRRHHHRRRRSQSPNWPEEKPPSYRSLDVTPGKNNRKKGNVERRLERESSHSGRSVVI
# [2] = target: T2, Myc-tagged cytoplasmic fragment of LSR (mouse) (mouse) (UniProt Q99KG5)
# T2 sequence: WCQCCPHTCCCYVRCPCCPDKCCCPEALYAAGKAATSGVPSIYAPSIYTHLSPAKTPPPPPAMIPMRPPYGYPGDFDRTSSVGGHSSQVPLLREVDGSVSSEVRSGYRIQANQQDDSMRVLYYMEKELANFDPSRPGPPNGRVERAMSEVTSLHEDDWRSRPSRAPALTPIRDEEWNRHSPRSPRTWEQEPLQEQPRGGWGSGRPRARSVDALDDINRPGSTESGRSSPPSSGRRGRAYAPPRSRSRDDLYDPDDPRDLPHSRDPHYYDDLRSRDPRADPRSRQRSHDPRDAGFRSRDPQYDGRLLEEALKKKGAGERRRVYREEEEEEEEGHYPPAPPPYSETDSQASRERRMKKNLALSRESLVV
# [3] = target: T3, Myc-tagged cytoplasmic fragment of ILDR2 (mouse) (mouse) (UniProt B5TVM2)
# T3 sequence: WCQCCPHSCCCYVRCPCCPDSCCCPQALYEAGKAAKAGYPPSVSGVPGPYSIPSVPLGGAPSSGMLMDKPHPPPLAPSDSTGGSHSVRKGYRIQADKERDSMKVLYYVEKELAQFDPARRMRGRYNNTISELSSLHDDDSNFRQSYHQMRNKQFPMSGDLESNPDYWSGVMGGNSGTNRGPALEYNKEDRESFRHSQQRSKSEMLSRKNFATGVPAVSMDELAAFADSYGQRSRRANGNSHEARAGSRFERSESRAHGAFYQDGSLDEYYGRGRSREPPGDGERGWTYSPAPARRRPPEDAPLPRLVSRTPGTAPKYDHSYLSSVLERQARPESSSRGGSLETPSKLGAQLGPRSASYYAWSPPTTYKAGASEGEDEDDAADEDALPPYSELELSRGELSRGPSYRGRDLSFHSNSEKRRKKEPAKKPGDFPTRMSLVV
# [4] = target: T4, Myc-tagged TRA2A (mouse) (mouse) (UniProt Q6PFR5)
# T4 sequence: B1 chain
# [5] = target: T5, Myc-tagged TRA2B (mouse) (mouse) (UniProt P62996)
# T5 sequence: B2 chain
# [6] = target: T6, Myc-tagged SRSF5 (mouse) (mouse) (UniProt O35326)
# T6 sequence: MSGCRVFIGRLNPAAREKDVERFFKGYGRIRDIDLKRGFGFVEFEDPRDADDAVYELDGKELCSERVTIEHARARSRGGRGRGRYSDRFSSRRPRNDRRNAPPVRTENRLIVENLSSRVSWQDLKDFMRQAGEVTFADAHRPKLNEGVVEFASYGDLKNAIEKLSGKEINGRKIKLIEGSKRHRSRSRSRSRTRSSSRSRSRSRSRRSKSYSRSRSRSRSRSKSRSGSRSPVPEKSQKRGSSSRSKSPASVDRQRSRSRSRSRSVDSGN
# [7] = target: Myc-tagged SRSF1 (mouse) (mouse) (UniProt Q6PDM2)
Molecule,binding [1],binding [2],binding [3],binding [4],binding [5],binding [6],binding [7]
EGFP-tagged mouse SRSF1 (from UniProt Q6PDM2 1-248),binds,binds,binds,–,–,–,–
B1,binds,binds,binds,–,–,–,–
B2,binds,binds,binds,–,–,–,–
B3,–,–,–,binds,binds,no binding,binds
B4,no binding,–,–,–,–,–,–
B5,no binding,–,–,–,–,–,–
